The supplement of paper PMC10126150
Values marked as one replicate rest on one cluster of the flow cell; about a third of the high ones do not repeat.
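Also: ATP exposure 15 min at 22 °C before imaging.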

The sequences below were run on ATP (assay: switch fluorescence ratio, 500 uM ATP over buffer (Cy3 cluster intensity, sum of 5 cycles each) (fold (ratio)); higher = stronger signal-on switching upon ATP binding; sequences stand for … in TCGTCGGCAGCGTCAGATGTGTATAAGAGACAGTTTTTTTTTTTTTTTTTTTTTTTTT…TC). Conditions: aptamer strand: ATP DNA aptamer (quencher-CACCTGGGGGAGTATTGCGGAGGAAGG + anchor), 100 nM annealed; ATP concentration: 500 uM; one replicate.
How it was run: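 After annealing to 100 nM quencher-labelled ATP aptamer, Cy3-labelled switching-strand clusters on a modified Illumina MiSeq flow-cell were imaged in selection buffer. A second image followed after 15 min with 500 uM ATP at 22 °C, and five such buffer/ATP cycles were done, each separated by NaOH stripping and re-annealing. The fluorescence ratio, averaged per switch-domain sequence, is summed target-cycle over summed buffer-cycle Cy3 intensity per cluster, with clusters outside 100-1000 RFU excluded.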
CCGAAGGAAT was tested, and the switch fluorescence ratio was 1.18. CCTTGCCGCT showed a switch fluorescence ratio of 1.05. Work on CTTATAGTAT yielded a switch fluorescence ratio of 0.971. AAGCTTCGTC gave a switch fluorescence ratio of 1.17. AAGATGGAAC showed a switch fluorescence ratio of 1.03. Work on AGTATTACGT yielded a switch fluorescence ratio of 0.987. For CAGAGCCTTC, the switch fluorescence ratio was 1.01. In the case of TCGCCAATTT, the switch fluorescence ratio is reported as 2.2. For AAACTTGGCC, the switch fluorescence ratio was 0.981. ACCCCAGCCA was tested, and the switch fluorescence ratio was 1.16. Sequence AGCAGCCCGT has a switch fluorescence ratio of 1.03. CGCGCCGTGT was tested, and the switch fluorescence ratio was 1.01. For AAGTCTGCGC, the switch fluorescence ratio was 1. TTGACCTCGT showed a switch fluorescence ratio of 0.996. Sequence TTTATGCT has a switch fluorescence ratio of 0.97. CGGGGAGTTA was tested, and the switch fluorescence ratio was 0.994. In the case of CGACGCCGGG, the switch fluorescence ratio is reported as 1.2. For CTGAGTTTAA, the switch fluorescence ratio was 1.01. GAGGACGGCG showed a switch fluorescence ratio of 0.952. ACCTATTCAT was tested, and the switch fluorescence ratio was 1.01. TAAGTATG gave a switch fluorescence ratio of 0.984. CAGCCATGCC was tested, and the switch fluorescence ratio was 1.01. TGATTGCCTG gave a switch fluorescence ratio of 1.03. Sequence CTGCCATATA has a switch fluorescence ratio of 1.12. With AGCCATATGG the switch fluorescence ratio was 0.998. Sequence AGTGATTTTG has a switch fluorescence ratio of 1.02. TAGGGATCTT gave a switch fluorescence ratio of 0.977. GCAAATGCGG showed a switch fluorescence ratio of 1.01. CGCTGTTTGC gave a switch fluorescence ratio of 1.08. CTGGACTTCA gave a switch fluorescence ratio of 1.03. For AAAATAAAT, the switch fluorescence ratio was 0.99. Work on TGCCTTGCGA yielded a switch fluorescence ratio of 1.05. Work on CCCGGGGGAG yielded a switch fluorescence ratio of 1.01. Sequence CATAATTATT has a switch fluorescence ratio of 1. Sequence TCGTTAAATG has a switch fluorescence ratio of 0.987. Sequence GCTACAAGGA has a switch fluorescence ratio of 1.04. Work on ACACAAGGGG yielded a switch fluorescence ratio of 0.99. GCTAAAGTTT showed a switch fluorescence ratio of 0.983. GCTCGTTATG was tested, and the switch fluorescence ratio was 0.957. For GTAGCCCTGG, the switch fluorescence ratio was 1.05. With ACTGCCCAAG the switch fluorescence ratio was 1.1. With ATGCGTATTG the switch fluorescence ratio was 0.981. Work on GCGGCTGCGG yielded a switch fluorescence ratio of 0.973. Sequence GGACTCAGGA has a switch fluorescence ratio of 0.987. CAGAGGGAAG gave a switch fluorescence ratio of 1. TTCACTTCT showed a switch fluorescence ratio of 1.02. Work on CACTGGATCG yielded a switch fluorescence ratio of 1.05. With ATTTCGATA the switch fluorescence ratio was 0.934. Sequence TTAAGAGCCG has a switch fluorescence ratio of 0.978. With GTCTCCGAGT the switch fluorescence ratio was 1.16. For GCCGCGGAA, the switch fluorescence ratio was 1.04. For TACGGTGTTT, the switch fluorescence ratio was 1.08. In the case of TCCTGGGCA, the switch fluorescence ratio is reported as 1.05. CCTGTGTCTA showed a switch fluorescence ratio of 1.13. GGGAATTATC showed a switch fluorescence ratio of 0.987. In the case of GGCGTACTTT, the switch fluorescence ratio is reported as 1.07. Work on ACCAATCCCC yielded a switch fluorescence ratio of 1.17. With ACTGTCTGGG the switch fluorescence ratio was 1. CACCTTAAAT gave a switch fluorescence ratio of 1.05. With TCGAAAGGGC the switch fluorescence ratio was 1. TGGCGATGAA showed a switch fluorescence ratio of 0.969. Work on CGTCCAGGTA yielded a switch fluorescence ratio of 1.47. CATTTCGCAT was tested, and the switch fluorescence ratio was 2.99. TTTATGCGAC showed a switch fluorescence ratio of 1.01. With GCCGTCATGG the switch fluorescence ratio was 1.01. GAGTCGCCAC was tested, and the switch fluorescence ratio was 0.961. GGTCGAAAAG gave a switch fluorescence ratio of 1.02. ATCTAATATG showed a switch fluorescence ratio of 1.14. TAATTAGAAC was tested, and the switch fluorescence ratio was 1. AAATACAGTG gave a switch fluorescence ratio of 1.03. Sequence CTTGCGGGAA has a switch fluorescence ratio of 0.988. Work on AAGATTTCTA yielded a switch fluorescence ratio of 1.03. TACCTTATCA was tested, and the switch fluorescence ratio was 1.05. ATTCCATGAC gave a switch fluorescence ratio of 0.977. ATCGTCCATT showed a switch fluorescence ratio of 0.993. With ATGGAACTGT the switch fluorescence ratio was 0.994. In the case of CTGGGTAGAA, the switch fluorescence ratio is reported as 1.03. With CCTTGGTCGG the switch fluorescence ratio was 0.946. GTTTTCTGTG was tested, and the switch fluorescence ratio was 0.941. With TTCTATGGGG the switch fluorescence ratio was 1. GCGCACAAGG showed a switch fluorescence ratio of 1.02. For ATGGAGGATC, the switch fluorescence ratio was 0.958. TTGGTCGGGC showed a switch fluorescence ratio of 0.946. In the case of GCCGTAGCAT, the switch fluorescence ratio is reported as 1.04. For ATTGTCTTCC, the switch fluorescence ratio was 1.7. For TGCTCAGGTA, the switch fluorescence ratio was 1.02. Work on CCGGTTAGGC yielded a switch fluorescence ratio of 1.09. Sequence TCTTCCGCCT has a switch fluorescence ratio of 3.92. With ATTTAGTAAC the switch fluorescence ratio was 1.11. AATATTTAGC was tested, and the switch fluorescence ratio was 1.01. Work on TCATCTG yielded a switch fluorescence ratio of 0.999. In the case of AAATATATCC, the switch fluorescence ratio is reported as 1.02. CGCGTGGTGA was tested, and the switch fluorescence ratio was 0.997. For CTGGTATTCG, the switch fluorescence ratio was 0.94. Work on AAGATTGCCA yielded a switch fluorescence ratio of 0.984. Sequence TATAGCTTCC has a switch fluorescence ratio of 2.84. In the case of TCAACGTAAA, the switch fluorescence ratio is reported as 1.13. ACTACTTCAT was tested, and the switch fluorescence ratio was 1.06. In the case of CTTAATATCA, the switch fluorescence ratio is reported as 1.03. ATCTCCCTGT gave a switch fluorescence ratio of 1.04.
